Usually % Inhibition stands for the drop in the measured response relative to a control, in per cent.

Structures are written as SMILES. The whole screen tested about 150,000 compounds, of which about 540 (0.36%) showed an effect of 50% or more. The list shows a part of the results.

These results are taken from ChEMBL document CHEMBL5308541, “MAIP: An Open-Source Tool to Enrich High-Throughput Screening Output and Identify Novel, Druglike Molecules with Antimalarial Activity” (ACS Med Chem Lett, 2023).

This assay has as its system Plasmodium falciparum. Kind of assay: Primary screen in NF54 nanoGlo assay, in single point, at 2uM, 72h; a lower Z score goes with more inhibition. The format is functional, Erythrocyte. The following applies: timepoint 72 hour.
As for `Cc1cc(NCCN2CCC(CO)CC2)nc(N2CCCC2)n1`, the “% Inhibition” value was 3% and the Z score was -0.56.
On to `O=C(NCC1CCN(CCc2ccccc2)CC1)Nc1ccc2[nH]ncc2c1`, for which the “% Inhibition” value is recorded as -2% and the Z score is given as 0.48.
Turning to `CCOC(=O)c1cnc2c(cnn2C)c1N(C)Cc1c(C)noc1C`, the “% Inhibition” value was 3% and the Z score is -0.54.
As to `COC1CCCC12CCCN(S(=O)(=O)c1cc(-c3cc(C(F)(F)F)on3)cs1)C2` (centres undefined), the “% Inhibition” value is listed as -5% and the Z score is recorded as 0.73.
Taken in the same sequence, the figures for `CCOc1ccc(-c2nccn2-c2ccc(N3CCN(C)CC3)nc2)cc1CO` were 3% and -0.58.
On to `NCC[C@H]1CN(C(=O)c2ccc(-c3ccc(NC4CC4)nn3)cc2)CCO1`, for which the “% Inhibition” value is -12% and the Z score was 2.08.
With `CC(C)COc1ccccc1CN(C)C(=O)CCN1CCCC1=O`, the “% Inhibition” value is reported as -22% and the Z score is reported as 4.28.
`COCOc1ccc(OC)cc1CNC1CCN(C2CCN(C)CC2)CC1`: the “% Inhibition” value is recorded as 17% and the Z score was -3.56.
With `CC(C)Nc1ccnc(NCc2cccnc2N2CCc3ccccc3C2)n1`, the “% Inhibition” value is reported as -2% and the Z score is 0.27.
As for `OCC1(CNc2nc(-c3ccncc3)nc3c2CCNC3)CCOCC1`, the “% Inhibition” value was -13% and the Z score came to 2.9.
For `Cc1cccc(N2CCC(Nc3ncc(F)c(N4CCCC4)n3)CC2)c1`, the “% Inhibition” value is -11% and the Z score was 2.47.
As for `O=C(O)c1ccnc(-c2ccnc(NCCN3CCCC[C@@H]3CO)n2)c1`, the “% Inhibition” value was -5% and the Z score came out at 0.82.
For the compound `CN(C)Cc1ccc([C@@H]2CCCN2c2cncc(C(=O)N3CCN(C)CC3)n2)cc1`, the “% Inhibition” value was -2% and the Z score is 0.37.
For `C[C@@H](C1CC1)n1nccc1NC(=O)NC1(c2ccc(C#N)cc2)CCOCC1`, the “% Inhibition” value is -10% and the Z score was 1.5.
The like results for `Nc1n[nH]c2ccc(-c3ccc(C(=O)NCCCN4CCCC4)cc3)cc12` were, in that order, 4% and -0.76.
Taken in the same sequence, the figures for `N#Cc1cc(C(F)(F)F)ccc1N1CCN(C[C@H]2CCOC2)CC1` were -3% and 0.5.
Regarding `OCC[C@H]1CCCCCN1Cc1ccc(OCCN2CCOCC2)c(Cl)c1`, the “% Inhibition” value is reported as 9% and the Z score was -1.32.
Taken in the same sequence, the figures for `OC(CN1CCC(C2CCCOC2)CC1)CN1CCC(C2CCCOC2)CC1` (centres undefined) were -7% and 1.06.
Consider `c1ccc(-c2ccc(-c3noc([C@H]4CC[C@H](Nc5ncccn5)CC4)n3)cc2)cc1`, for which the “% Inhibition” value is recorded as -5% and the Z score is listed as 1.12.
On to `Cc1cc2n(n1)CCCN(c1ccc3cc[nH]c3n1)C2`, for which the “% Inhibition” value worked out at 5% and the Z score was -0.87.
With `Cc1cc(N2CCC(Nc3ccnc4ccncc34)CC2)nc(C)n1`, the “% Inhibition” value came out at 25% and the Z score was -5.3.
Turning to `CC(C)Oc1cc(NCC2(CN3CCN(C)CC3)CC2)nc(N)n1`, the “% Inhibition” value is on record as -7% and the Z score was 1.06.
On to `CN(C)CC1CC(CO)CN(C(=O)Cc2ccc3[nH]c4ccccc4c3c2)C1` (centres undefined), for which the “% Inhibition” value was -10% and the Z score stood at 2.07.
The like results for `Cc1noc(Cn2cc(O)c(-c3nc4ccccc4[nH]3)c2N)n1` were, in that order, -12% and 1.8.
As for `CNCc1nc2cc(C(F)(F)F)ccc2[nH]1`, the “% Inhibition” value turned out to be 0% and the Z score is listed as 0.04.
In the case of `CNC(=O)c1cc2cc(NC(=O)c3cc(-c4ccco4)[nH]n3)ccc2[nH]1`, the “% Inhibition” value was -6% and the Z score is 0.93.
On to `CN(C)CCCN(C)C(=O)c1cccc(-c2ccc3cc[nH]c(=O)c3c2)c1`, for which the “% Inhibition” value is listed as 4% and the Z score is on record as -0.96.
Take `COC1CCN(S(=O)(=O)Nc2cccc(C(=O)CCC(=O)O)c2)CC1`: the “% Inhibition” value was 1% and the Z score is -0.3.
As to `COC(=O)CN1CCC(NC2CCN(c3ccc(C)cn3)CC2)CC1`, the “% Inhibition” value is 9% and the Z score is given as -1.99.
`CN(Cc1cnc(N)nc1)c1nc(NC2CC2)nc2c1CCNCC2`: the “% Inhibition” value is reported as -10% and the Z score was determined as 1.69.
For `FC(F)(F)Oc1cccc(CNC2CCN(C3CC3)CC2)c1`, the “% Inhibition” value is given as -13% and the Z score was determined as 2.24.
For the compound `COc1ccc(Nc2nc(Cc3ccsc3)cs2)cc1F`, the “% Inhibition” value is on record as -8% and the Z score is 1.36.
Taken in the same sequence, the figures for `Cc1nc(Nc2cccc(Oc3ccccn3)c2)c2cnn(C)c2n1` were 4% and -0.86.
Taken in the same sequence, the figures for `COc1cccc(C(CNCC(O)CN2CCOCC2)c2c[nH]c3ccccc23)c1OC` (centres undefined) were -3% and 0.55.
`COc1ccc2nc(NCc3ccnc(O[C@H]4CCOC4)c3)ccc2c1`: the “% Inhibition” value is recorded as -4% and the Z score stood at 0.65.
With `CC[C@H]1CCCCN1Cc1ccc(C(=O)NCc2nc3ccccc3s2)c(=O)[nH]1`, the “% Inhibition” value was -12% and the Z score was 2.06.
For the compound `COc1ccccc1Nc1nc(N)nc(COc2ccc(-c3nnco3)cc2)n1`, the “% Inhibition” value was -23% and the Z score amounted to 3.44.
For `COC(C(=O)Nc1ccc2[nH]c(-c3ccccc3)nc2c1)C1CCOC1` (centres undefined), the “% Inhibition” value is -5% and the Z score is 0.74.
Take `CCc1noc(C2CCC(NCCc3cccc4[nH]ccc34)CC2)n1` (centres undefined): the “% Inhibition” value is reported as -10% and the Z score is 1.81.
For `CC(C)(CNC(=O)c1nnsc1NC(=O)OC(C)(C)C)NC(=O)OC(C)(C)C`, the “% Inhibition” value is -9% and the Z score is 1.63.
Regarding `Oc1ccc(C(c2c(-c3ccccc3)[nH]c3ccccc23)c2c(-c3ccccc3)[nH]c3ccccc23)cc1`, the “% Inhibition” value is reported as -7% and the Z score is recorded as 1.16.
Take `Cc1cnccc1NCCNc1nc(C(C)(C)C)nc2c1cnn2C`: the “% Inhibition” value is recorded as 20% and the Z score is reported as -3.05.
The like results for `CN(CC(N)=O)C[C@H]1CN(c2cncc(-c3ccccc3)n2)CCO1` were, in that order, -15% and 2.53.
With `Cc1ccnc(NCC2CCN(Cc3ccccc3)CC2)n1`, the “% Inhibition” value is on record as -5% and the Z score is 1.17.
In the case of `O=S1(=O)CC[C@H](NCCc2ccc(OCCN3CCCC3)cc2)c2cc(F)ccc21`, the “% Inhibition” value was 1% and the Z score is -0.18.
As for `Cn1ncc2c(N)nc(NCCOc3ccc(C#N)cc3)nc21`, the “% Inhibition” value is -9% and the Z score amounted to 1.56.
Taken in the same sequence, the figures for `CC(C)(C)OC(=O)N1CCC(CC(=O)N2C3CCC2CC(Oc2ccncc2)C3)CC1` (centres undefined) were -2% and 0.31.
The like results for `N#Cc1ccc(N2C[C@H](COCC3CC3)C3(CCN(Cc4cccc(O)c4)CC3)C2)cc1C(F)(F)F` were, in that order, 82% and -14.34.
For `c1ccc(N2CCN(C[C@H]3CCCN(c4ncnc5[nH]ccc45)C3)CC2)nc1`, the “% Inhibition” value is recorded as -6% and the Z score is 1.29.
Turning to `Cc1cc2c(NCCNC3CCCCCC3)nccn2n1`, the “% Inhibition” value amounted to 10% and the Z score is listed as -1.53.
As for `CN1CCO[C@H](C(=O)N(CCO)Cc2ccc(Cl)c(Cl)c2)C1`, the “% Inhibition” value was -5% and the Z score was 0.7.
`CC(C)Nc1cc(-c2cccc(C(=O)NC3(C(N)=O)CCCC3)c2)nc(N)n1`: the “% Inhibition” value is -3% and the Z score stood at 0.66.
Regarding `CCn1cc(-c2cccc(C(=O)NCCNc3ccncc3C)c2)cn1`, the “% Inhibition” value worked out at 16% and the Z score was -2.73.
Taken in the same sequence, the figures for `CCN(C(=O)c1cc(C)nc2cc(F)ccc12)[C@H]1CCOC(C)(C)C1` were 8% and -1.44.
Consider `O=C1NCC[C@@H]1Oc1cc(Br)cc(F)c1F`, for which the “% Inhibition” value is listed as 1% and the Z score was -0.18.
Taken in the same sequence, the figures for `CC(=O)N1CCN(Cc2cccc(NCc3n[nH]c4ccccc34)c2)CC1` were -4% and 0.79.
`COc1ccc(-c2[nH]c3ccccc3c2CCC(=O)N2C[C@@H](C)[C@H](C(N)=O)C2)c(OC)c1`: the “% Inhibition” value is recorded as -8% and the Z score worked out at 1.27.
Regarding `O=C1[C@@H](Nc2ncc(Br)cn2)CCCN1CCO`, the “% Inhibition” value is given as -4% and the Z score is recorded as 0.86.
`CCN(CCCN1CCCC1)C(=O)NCCc1c[nH]c2cc(F)ccc12`: the “% Inhibition” value is -4% and the Z score came out at 0.7.
For `O=S1(=O)CC[C@H](CNC2CCN(c3cccc(-c4cnco4)c3)CC2)C1`, the “% Inhibition” value was -4% and the Z score came out at 0.61.
For `CCOc1cccnc1C(=O)NCc1ccc(C(=O)O)c(C2CC2)n1`, the “% Inhibition” value was determined as 0% and the Z score is recorded as -0.06.
Take `CN(C)C(=O)c1ccc(S(=O)(=O)N(c2ccsc2)C2CCCCC2)cc1`: the “% Inhibition” value was -2% and the Z score is on record as 0.39.
Taken in the same sequence, the figures for `O=C1CC[C@]2(CCCN(Cc3cccc(F)c3C(F)(F)F)C2)CN1C1CC1` were -18% and 3.2.
In the case of `Cn1cc(Nc2cccc(C(=O)N3CCCN(CC4CCCCC4)CC3)c2)cn1`, the “% Inhibition” value is recorded as 15% and the Z score is reported as -2.68.
Consider `Cc1ccc(-c2cc(C(=O)N3CCC(Nc4ncccn4)CC3)[nH]n2)o1`, for which the “% Inhibition” value was found to be 6% and the Z score was -1.09.
The like results for `O=C(Nc1cccc(-c2nc3ccccc3[nH]2)c1)C1(C(F)(F)F)CCOCC1` were, in that order, 1% and -0.25.
As for `OC12CCCCC1CN(C1CCN(c3ccc(-n4cccn4)cc3)CC1)CC2` (centres undefined), the “% Inhibition” value is recorded as -8% and the Z score was 1.48.
For `CC(C)(C)OC(=O)NC1CCN(c2nccc3cc(N)ccc23)CC1`, the “% Inhibition” value came to 8% and the Z score is -1.14.
As to `O=C(O)c1ccc(NS(=O)(=O)c2cnc(C3CC3)s2)cc1C(F)(F)F`, the “% Inhibition” value is on record as -1% and the Z score was 0.2.
Regarding `CCN1CCC[C@@H]1CNc1nnc(-c2cn(C)c3ccccc23)o1`, the “% Inhibition” value is 1% and the Z score was -0.21.
Taken in the same sequence, the figures for `NCCN1C(=O)CCC2CN(C(=O)c3nc4ccccn4c3F)CCC21` (centres undefined) were 3% and -0.53.
Turning to `CC1CN(c2ccc(Nc3nc4ccccc4s3)cn2)CC(C)O1` (centres undefined), the “% Inhibition” value is recorded as 0% and the Z score is -0.09.
`COc1ccc(-c2ncc(C(=O)N3CCC[C@@](O)(C(F)(F)F)CC3)s2)cc1`: the “% Inhibition” value is -12% and the Z score is 1.9.
The like results for `O=C(c1c[nH]c2ncc(Br)cc12)N1CC[C@H](CN2CCCC2)C1` were, in that order, -15% and 2.59.
Take `Cc1cc(CN2C[C@@H](F)C[C@H]2CNC(=O)c2cc(-c3ccccc3)[nH]n2)on1`: the “% Inhibition” value amounted to 1% and the Z score is -0.2.
For the compound `Cc1nc(OCC(=O)NCCNc2cc(-n3cnc(C)c3C)ncn2)cc(-n2cccn2)n1`, the “% Inhibition” value is -5% and the Z score turned out to be 0.81.
Taken in the same sequence, the figures for `CCc1c[nH]c2ncnc(NCc3ccnc(NC)c3)c12` were 2% and -0.36.
`CC1(C)CNC(=O)C2(CCN(c3ccnc4c(C(F)(F)F)cccc34)CC2)NC1`: the “% Inhibition” value is -1% and the Z score was 0.14.
For the compound `CCCN(CCC)C(=O)c1ccc(-c2cnc(NC3CCCCC3)nc2)cc1`, the “% Inhibition” value is reported as -2% and the Z score was 0.36.
With `Cn1ccc(N2CC[C@H](NCc3cc4ccccc4nc3O)C2)n1`, the “% Inhibition” value is reported as -6% and the Z score stood at 0.9.
Taken in the same sequence, the figures for `CCCCN1CCC(NC(=O)c2c[nH]c3ncccc23)CC1` were -8% and 1.66.
In the case of `Cc1ccc(-n2cccn2)c(CN(Cc2cccnc2)CC2CCN(C3CCCC3)CC2)c1`, the “% Inhibition” value was -8% and the Z score is listed as 1.33.
